Laboratory results from PMC12429063, “The BUB1 and BUBR1 paralogs scaffold the kinetochore fibrous corona” (Science Advances, 2025).
Positions count from the first letter of the chain named. Results are given in words; binding and its absence hold for the method and conditions named. Some binding calls cover weakened binding; strength is not graded here. For some assays here: Sequences can lack the tags named with a protein.

The chains behind the UniProt entries cited, without tags or fusion partners. Where a name states a change or a piece, a line headed by the entry shows the natural chain unless it says otherwise.
UniProt O60566: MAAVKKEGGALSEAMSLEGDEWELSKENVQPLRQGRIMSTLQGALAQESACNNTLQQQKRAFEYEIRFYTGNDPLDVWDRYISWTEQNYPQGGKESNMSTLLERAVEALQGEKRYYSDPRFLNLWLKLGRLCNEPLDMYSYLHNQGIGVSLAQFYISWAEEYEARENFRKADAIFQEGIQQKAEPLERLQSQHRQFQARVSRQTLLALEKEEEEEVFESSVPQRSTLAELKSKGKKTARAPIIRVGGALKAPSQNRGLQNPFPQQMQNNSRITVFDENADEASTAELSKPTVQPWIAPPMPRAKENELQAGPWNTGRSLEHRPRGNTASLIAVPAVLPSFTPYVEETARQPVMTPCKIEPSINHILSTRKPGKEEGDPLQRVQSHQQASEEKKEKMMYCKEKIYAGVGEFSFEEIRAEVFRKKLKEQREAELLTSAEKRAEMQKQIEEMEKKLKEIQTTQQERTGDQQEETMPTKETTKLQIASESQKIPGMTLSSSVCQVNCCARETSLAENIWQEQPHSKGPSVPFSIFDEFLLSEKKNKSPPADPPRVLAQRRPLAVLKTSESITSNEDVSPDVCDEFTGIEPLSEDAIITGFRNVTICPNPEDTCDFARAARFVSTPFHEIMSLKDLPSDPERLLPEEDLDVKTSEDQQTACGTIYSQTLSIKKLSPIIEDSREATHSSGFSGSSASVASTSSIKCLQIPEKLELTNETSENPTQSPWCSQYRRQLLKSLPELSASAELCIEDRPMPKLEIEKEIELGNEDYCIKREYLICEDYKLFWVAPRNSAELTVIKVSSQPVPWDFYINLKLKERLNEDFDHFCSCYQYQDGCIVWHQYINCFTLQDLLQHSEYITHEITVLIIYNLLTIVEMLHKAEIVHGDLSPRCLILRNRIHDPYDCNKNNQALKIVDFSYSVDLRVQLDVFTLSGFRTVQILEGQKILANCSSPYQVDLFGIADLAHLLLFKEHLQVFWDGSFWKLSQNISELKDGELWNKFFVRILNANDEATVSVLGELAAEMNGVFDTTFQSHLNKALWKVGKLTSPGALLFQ
UniProt P50748: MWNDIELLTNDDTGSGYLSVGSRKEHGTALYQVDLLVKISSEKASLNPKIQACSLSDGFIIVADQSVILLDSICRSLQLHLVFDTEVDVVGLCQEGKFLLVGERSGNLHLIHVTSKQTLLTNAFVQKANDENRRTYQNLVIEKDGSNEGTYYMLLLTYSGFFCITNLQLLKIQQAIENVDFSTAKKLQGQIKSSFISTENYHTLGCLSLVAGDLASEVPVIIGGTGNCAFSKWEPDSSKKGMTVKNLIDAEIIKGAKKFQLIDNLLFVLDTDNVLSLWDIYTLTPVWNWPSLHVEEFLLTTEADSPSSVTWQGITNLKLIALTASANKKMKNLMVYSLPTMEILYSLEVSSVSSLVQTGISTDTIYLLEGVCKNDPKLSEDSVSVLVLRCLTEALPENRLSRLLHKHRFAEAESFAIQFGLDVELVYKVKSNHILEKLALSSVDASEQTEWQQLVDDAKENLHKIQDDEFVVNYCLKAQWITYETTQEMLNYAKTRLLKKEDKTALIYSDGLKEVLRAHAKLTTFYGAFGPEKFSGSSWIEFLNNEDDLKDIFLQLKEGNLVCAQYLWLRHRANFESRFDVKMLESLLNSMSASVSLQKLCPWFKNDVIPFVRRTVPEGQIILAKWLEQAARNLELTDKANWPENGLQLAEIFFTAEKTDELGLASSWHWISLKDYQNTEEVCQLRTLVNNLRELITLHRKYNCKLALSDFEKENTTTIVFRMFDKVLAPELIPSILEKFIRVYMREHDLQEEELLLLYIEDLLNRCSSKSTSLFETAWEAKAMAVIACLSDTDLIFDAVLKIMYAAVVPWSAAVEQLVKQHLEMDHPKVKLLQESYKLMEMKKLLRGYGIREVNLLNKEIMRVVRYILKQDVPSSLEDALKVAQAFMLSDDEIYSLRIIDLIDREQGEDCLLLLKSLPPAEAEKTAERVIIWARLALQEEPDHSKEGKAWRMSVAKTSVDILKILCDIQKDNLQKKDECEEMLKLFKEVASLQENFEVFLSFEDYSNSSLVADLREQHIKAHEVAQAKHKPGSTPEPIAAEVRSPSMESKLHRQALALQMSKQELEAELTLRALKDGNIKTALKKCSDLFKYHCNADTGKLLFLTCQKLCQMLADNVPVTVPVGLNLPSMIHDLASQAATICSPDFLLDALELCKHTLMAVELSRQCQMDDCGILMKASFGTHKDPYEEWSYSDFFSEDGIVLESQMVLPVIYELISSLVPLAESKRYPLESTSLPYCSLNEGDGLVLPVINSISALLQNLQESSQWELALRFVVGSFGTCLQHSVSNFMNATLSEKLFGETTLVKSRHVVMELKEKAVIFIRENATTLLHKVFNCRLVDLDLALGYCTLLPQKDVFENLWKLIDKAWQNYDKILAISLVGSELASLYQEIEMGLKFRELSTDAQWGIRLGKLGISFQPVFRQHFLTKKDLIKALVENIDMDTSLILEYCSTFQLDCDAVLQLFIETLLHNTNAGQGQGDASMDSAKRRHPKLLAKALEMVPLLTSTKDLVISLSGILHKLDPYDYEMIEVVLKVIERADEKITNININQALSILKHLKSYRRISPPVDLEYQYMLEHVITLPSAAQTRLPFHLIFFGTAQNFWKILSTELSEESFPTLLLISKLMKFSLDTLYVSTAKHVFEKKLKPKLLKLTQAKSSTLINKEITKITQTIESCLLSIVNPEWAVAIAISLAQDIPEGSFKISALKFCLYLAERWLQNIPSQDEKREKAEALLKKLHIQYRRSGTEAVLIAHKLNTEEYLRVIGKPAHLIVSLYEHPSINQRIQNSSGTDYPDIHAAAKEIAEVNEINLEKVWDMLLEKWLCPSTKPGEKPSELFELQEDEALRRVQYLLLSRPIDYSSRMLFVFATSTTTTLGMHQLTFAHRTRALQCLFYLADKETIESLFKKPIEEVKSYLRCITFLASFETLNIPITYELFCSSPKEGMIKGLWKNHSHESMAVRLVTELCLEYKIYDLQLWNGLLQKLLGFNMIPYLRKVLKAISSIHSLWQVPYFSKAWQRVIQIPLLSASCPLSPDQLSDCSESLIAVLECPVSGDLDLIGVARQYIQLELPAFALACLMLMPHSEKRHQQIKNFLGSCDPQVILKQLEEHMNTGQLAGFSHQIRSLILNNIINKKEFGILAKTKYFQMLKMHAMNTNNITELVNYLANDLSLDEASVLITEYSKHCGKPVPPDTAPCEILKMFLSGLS

What was measured:
[1] = target: BUBR1:BUB3 complex (UniProt O60566); test: SEC; analytical SEC on Superose 6 15/50 at 4°C; 50 mM Hepes pH 8.0, 100 mM NaCl, 1 mM TCEP; proteins mixed and incubated 16 hours at 10°C; both purified
[2] = target: T1, GST-BUB1^467-521 F475A-F500A-E501A (human) (UniProt O43683); test: as above
T1 sequence: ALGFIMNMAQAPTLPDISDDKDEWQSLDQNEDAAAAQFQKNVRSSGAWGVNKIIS

[3] = target: T2, GST-BUB1^467-521 F475A-P478R-F500A-E501A (human) (UniProt O43683); test: as above
T2 sequence: T1 sequence with P12R

[4] = target: T3, GST-BUB1^467-521 F500A-E501A (human) (UniProt O43683); test: as above
T3 sequence: T1 sequence with A9F

[5] = target: T1, GST-BUB1^467-521 F475A-F500A-E501A (human); test: pull-down; GST-BUB1 baits on GSH beads, no phosphorylation step; 50 mM Hepes pH 8.0, 100 mM NaCl, 1 mM TCEP; beads 2 hours at 4°C; SDS-PAGE, Coomassie or in-gel fluorescence; both purified
[6] = target: T2, GST-BUB1^467-521 F475A-P478R-F500A-E501A (human); test: as above
[7] = target: T3, GST-BUB1^467-521 F500A-E501A (human); test: as above
[8] = target: T4, GST-BUB1^477-521 (human) (UniProt O43683); test: as above
T4 sequence: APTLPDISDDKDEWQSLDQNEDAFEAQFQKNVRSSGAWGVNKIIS

binding [1]: no binding | binding [2]: no binding | binding [3]: no binding | binding [4]: no binding | binding [5]: no binding | binding [6]: no binding | binding [7]: no binding | binding [8]: binds weakly
Substance: mCherry-tagged ROD-Zwilch-ZW10 (RZZ) complex, wild type (from UniProt P50748 1-2209; Q9H900 1-591; O43264 1-779)
